Assays:
glucosyltransferase = assay: Inhibition of insoluble glucan formation by glucosyltransferase from dental caries-inducing microorganism; type: biochemical, Streptococcus sobrinus strain (ATCC 27351)
Experimental: To a mixture solution consisting of one ml of one w/v % sucrose solution, one ml of one w/v % of a test saccharide solution, and 1.5 ml of 0.1M phosphate buffer (pH 6.8) was added 0.5 ml solution containing a crude glucosyltransferase specimen in a total protein content of 10 mg, and the mixture solution was placed in a small test tube which was then fixed and slanted to give a grade 30 degrees and allowed to react at 37° C. for 16 hours. The reaction mixture was transferred gently to another test tube and mixed with a solution obtained by washing carefully with 4 ml water the remaining substances adhered to the inner walls of the small test tube, and the mixture solution was centrifuged to obtain a precipitate as a non-adsorbed glucan. The amounts of the adsorbed- and non-adsorbed glucans thus obtained were respectively quantified by the anthrone-sulfuric acid method, and the total amount of them was regarded as the amount of the formed insoluble glucans. As a control system, a reaction system using water in place of the test saccharide solution, i.e. a reaction system using sucrose as a saccharide, was provided.

[1] = Maillard reaction (coloration with glycine); type: physicochemical
[2] = test system: Streptococcus sobrinus ATCC 27351; assay: Acid formation by dental caries-inducing microorganisms; conditions: for pH at each fermentation time (min): living wet cells, 0.02M saccharide, Stephen buffer pH 7.0, 37° C.
bifid bacteria = assay: Influence on growth-promoting activity for bifid bacteria in vivo (healthy volunteers, feces); parameters: species or system human; conditions: for Percentage (%) of bifid bacteria to the total microorganisms: mean value
Experimental: The weight of daily feces before and after the 14-day administration tests, the relative change of feces' weight, the feces' pH, the total number of microorganisms per g of feces, the percentage of the number of bifid bacteria to the total number of microorganisms in feces, and the relative change of the total number of bifid bacteria were measured, followed by calculating the mean value of the five volunteers. Among these measurements, the total number of microorganisms was determined in accordance with the method as reported in "A Color Atlas of Anaerobic Bacteria", pp.53-65 (1984), edited by Tomotari MITSUOKA, published by Kabushiki Kaisha Sobunsha, Tokyo, Japan (1984): The colonies grown in 13 different types of media excluding M10 medium were judged for which genus they belong to and counted for cells. The cell count obtained with a specific medium, which gave the highest number of microorganisms for each genus, was determined to be a real cell count. The total cell count of microorganisms of all the genera was determined to be the total number of microorganisms in each volunteer's feces.

Solubility in solvent = conditions: water, 0.1N NaOH and 0.1N HCl
[3] = After 10 g orally daily for 14 days, before = 100
[4] = After 10 g orally daily for 14 days

OC[C@H]1O[C@H](OC[C@H]2O[C@H](OC[C@H]3O[C@H](O[C@H]4O[C@H](CO)[C@@H](O)[C@H](O)[C@H]4O)[C@H](O)[C@@H](O)[C@@H]3O)[C@H](O)[C@@H](O)[C@@H]2O)[C@H](O)[C@@H](O)[C@@H]1O [α-Isomaltotriosyl α-glucoside, O-α-D-glucopyranosyl-(1→6)-O-α-D-glucopyranosyl-(1→6) α-D-glucopyranosyl α-D-glucopyranoside]
Inhibition of the formation of insoluble glucans, in words (glucosyltransferase): strongly inhibited the formation of insoluble glucans
Inhibitory percentage (%) on insoluble glucans formation (glucosyltransferase; sucrose plus test saccharide (one ml of one w/v % each), 37° C., 16 hours, vs sucrose alone): 83.9%
Maillard reaction, judgement in words [1]: substantially free from the Maillard reaction
pH reduction / acid fermentation, in words [2]: substantially free of acid fermentation
pH at each fermentation time (min) ([2]; 0 min): 7.0
pH at each fermentation time (min) ([2]; 5 min): 7.0
Growth promotion of bifid bacteria when orally administered to human, in words (bifid bacteria; oral, human): exert an effect to promote the growth of bifid bacteria

OC[C@H]1O[C@H](OC[C@H]2O[C@H](O[C@H]3O[C@H](CO[C@H]4O[C@H](CO)[C@@H](O)[C@H](O)[C@H]4O)[C@@H](O)[C@H](O)[C@H]3O)[C@H](O)[C@@H](O)[C@@H]2O)[C@H](O)[C@@H](O)[C@@H]1O [α-Isomaltosyl α-isomaltoside, O-α-D-glucopyranosyl -(1→6)-α-D-glucopyranosyl-O-α-D-glucopyranosyl-(1→6) -α-D-glucopyranoside]
Solubility in solvent (Solubility in solvent): Readily soluble
Relative changes of bifid bacteria (total cell count) (bifid bacteria; [3]): 256
Percentage (%) of bifid bacteria to the total microorganisms (bifid bacteria; [4]): 25.0%
Relative changes of bifid bacteria (total cell count) (bifid bacteria; […]): 100

OC[C@H]1O[C@H](OC[C@H]2O[C@H](O[C@H]3O[C@H](CO)[C@@H](O)[C@H](O)[C@H]3O)[C@H](O)[C@@H](O)[C@@H]2O)[C@H](O)[C@@H](O)[C@@H]1O [O-α-D-glucopyranosyl -(1→6)-α-D-glucopyranosyl α-D-glucopyranoside]
Relative changes of bifid bacteria (total cell count) (bifid bacteria; [3]): 231
Percentage (%) of bifid bacteria to the total microorganisms (bifid bacteria; [4]): 24.5%
pH of feces (bifid bacteria; After 10 g orally daily for 14 days, mean ± SD): 6.0± 0.4
Relative changes of bifid bacteria (total cell count) (bifid bacteria; […]): 100

Source: patent publication US5858992A, “Non-reducing saccharides, their preparation and use” (Kabushiki Kaisha Hayashibara Seibutsu Kagaku Kenkyujo, priority 1995, dated 1999)
